# This is one part of the list. The full chains were built here from the parent and the listed change. Inactive controls read about 0.05.
# B1: TEV protease; numbered along this chain (parent)
# chain: MGESLFKGPRDYNPISSSICHLTNESDGHTTSLYGIGFGPFIITNKHLFRRNNGTLVVQSLHGVFKVKDTTTLQQHLVDGRDMIIIRMPKDFPPFPQKLKFREPQREERICLVTTNFQTKSMSSMVSDTSCTFPSGDGIFWKHWIQTKDGQCGSPLVSTRDGFIVGIHSASNFTNTNNYFTSVPKNFMELLTNQEAQQWVSGWRLNADSVLWGGHKVFMVKPEEPFQPVKEATQL
# Variants of: B1
# Experiment: raw area under fraction-flipped curve 0-4 h after induction (AUC4h, not background-subtracted), DNA-recorder readout of cleavage of the substrate (dimensionless); higher = more cleavage of the substrate by the protease variant
# Conditions: temperature: 34 °C; time window: 0-4 h after rhamnose induction
# Protocol: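 In vivo DNA recorder in E. coli TOP10(DE3) ΔrhaA at 34 °C. Each TEVp single-site mutant (parent TEVp 0) is paired with a single-site variant of the 7-mer TEVs (canonical ENLYFQ|S). The substrate sits between flexible linkers in a Bxb1-sfGFP-TEVs-SsrA fusion, so cleavage stabilises Bxb1 and speeds flipping of a recombination array, read by NGS. The value is the raw area under the fraction-flipped curve over 0-4 h after rhamnose induction (AUC4h), with ≥20 reads per time point. It is not background-subtracted; inactive controls average about 0.047.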
# 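Also: Bxb1 expression induced with 0.2% (w/v) L-rhamnose at OD600 near 0.5, cultures sampled hourly, flipped fraction per protease–substrate barcode pair counted by paired-end Illumina sequencing.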
Variant,area with substrate ENLYAQS,area with substrate ENLYCQS,area with substrate ENLYDQS,area with substrate ENLYEQS,area with substrate ENLYGQS,area with substrate ENLYHQS,area with substrate ENLYIQS,area with substrate ENLYKQS,area with substrate ENLYLQS,area with substrate ENLYMQS,area with substrate ENLYNQS,area with substrate ENLYPQS,area with substrate ENLYRQS,area with substrate ENLYVQS,area with substrate ENLYQQS,area with substrate ENLYSQS,area with substrate ENLYWQS,area with substrate ENLYYQS,area with substrate ENLYTQS
MGESLFKGPRDYNPISSSICHLTNESDGHTTSLYGIGFGPFIITNKHLFRRNNGTLVVQSLHGVFKVKDTTTLQQHLVDGRDMIIIRMPKDFPPFPQKLKFREPQREERICLVTTNFQTKSMSSMVSDTSCTFPSGDGIFWKHWIQTKDGQCGSPLVSTRDGFIVGIHSASNFTNTNNYFTSVPKNFMELLTNQEAQQWVSGWRLNADSVLWGGHYVFMVKPEEPFQPVKEATQL [K216Y],0.0426,0.0531,0.0659,0.129,0.059,0.0701,0.0828,0.0637,0.078,0.0885,0.0572,0.0571,0.0587,0.0524,,,,,
MGESLFKGPRDYNPISSSICHLTNESDGHTTSLYGIGFGPFIITNKHLFRRNNGTLVVQSLHGVFKVKDTTTLQQHLVDGRDMIIIRMPKDFPPFPQKLKFREPQREERICLVTTNFQKKSMSSMVSDTSCTFPSGDGIFWKHWIQTKDGQCGSPLVSTRDGFIVGIHSASNFTNTNNYFTSVPKNFMELLTNQEAQQWVSGWRLNADSVLWGGHKVFMVKPEEPFQPVKEATQL [T119K],0.0732,0.0851,0.0767,,0.0569,0.0614,,0.0517,,0.0968,0.0574,,,,0.0644,0.0663,,,
MGESLFTGPRDYNPISSSICHLTNESDGHTTSLYGIGFGPFIITNKHLFRRNNGTLVVQSLHGVFKVKDTTTLQQHLVDGRDMIIIRMPKDFPPFPQKLKFREPQREERICLVTTNFQTKSMSSMVSDTSCTFPSGDGIFWKHWIQTKDGQCGSPLVSTRDGFIVGIHSASNFTNTNNYFTSVPKNFMELLTNQEAQQWVSGWRLNADSVLWGGHKVFMVKPEEPFQPVKEATQL [K7T],0.0896,,0.0749,,,,,,,0.0756,0.108,0.0602,0.0785,0.0055,0.0758,,,,
MGESLFKGPRDYNPISSSICHLTNESDGHTTSLYGIGFGPFIITNKHLFRRNNGTLVVQSLHGVFKVKDTTTLQQHLVDGRDMIIIRMPKDFPPFPQKLKFREPQREERICLVTTNFQTKSMSSMVSDTSCTFPSGDGIFWKHWIQTKDGQCGSPLVSTRDGFIVGIHSASNFTNTNNYFQSVPKNFMELLTNQEAQQWVSGWRLNADSVLWGGHKVFMVKPEEPFQPVKEATQL [T181Q],0.0533,,0.0585,,0.054,,,0.0573,,0.0644,,0.0561,,,,0.0667,0.0503,,
MGESLFKGPRDYNPISSSICHLTNESDGHTTSLYGIGFGPFIITNKHLFRRNNGTLVVQSLHGVFKVKDTTTLQQHLVDGRDMIIIRMPKDFPPFPQKLKFREPQREENICLVTTNFQTKSMSSMVSDTSCTFPSGDGIFWKHWIQTKDGQCGSPLVSTRDGFIVGIHSASNFTNTNNYFTSVPKNFMELLTNQEAQQWVSGWRLNADSVLWGGHKVFMVKPEEPFQPVKEATQL [R109N],0.0484,,0.0961,,,0.0732,0.0908,0.0549,,,0.0722,0.0542,0.0381,,0.0543,0.0692,0.0709,0.0694,
MGESLFKGPRDYNPISSSICHLTNESDGHTTSLYGIGFGPFIITNKHLFRRNNGTLVVQSLHGVFKVKDTTTLQQHLVDGRDMIIIRMPKDFPPFPQKLKFREPQREERICLVTTNFQTKSMSSMVSDTSCTFPSIDGIFWKHWIQTKDGQCGSPLVSTRDGFIVGIHSASNFTNTNNYFTSVPKNFMELLTNQEAQQWVSGWRLNADSVLWGGHKVFMVKPEEPFQPVKEATQL [G136I],0.0761,,,0.0625,0.0619,,,,,0.111,0.0698,,0.0492,0.0956,,,,,0.0904
MGESLFKGPRDYNPISSSICHLTNESDGHTTSLYGIGFGPFIITNKHLFRRNNGTLVVQSYHGVFKVKDTTTLQQHLVDGRDMIIIRMPKDFPPFPQKLKFREPQREERICLVTTNFQTKSMSSMVSDTSCTFPSGDGIFWKHWIQTKDGQCGSPLVSTRDGFIVGIHSASNFTNTNNYFTSVPKNFMELLTNQEAQQWVSGWRLNADSVLWGGHKVFMVKPEEPFQPVKEATQL [L61Y],0.0619,0.0965,0.0456,0.072,,,,0.068,,,,0.0598,,0.138,,0.0751,,,0.0757
MGESLFKGPRDYNPISSSICHLTNESDGHTTSLYGIGFGPFIITNKHLFRRNNGTLVVQSLHGVFKVKDTTTLQQHLVDGRCMIIIRMPKDFPPFPQKLKFREPQREERICLVTTNFQTKSMSSMVSDTSCTFPSGDGIFWKHWIQTKDGQCGSPLVSTRDGFIVGIHSASNFTNTNNYFTSVPKNFMELLTNQEAQQWVSGWRLNADSVLWGGHKVFMVKPEEPFQPVKEATQL [D82C],0.0583,0.0685,,0.0579,,0.0635,0.059,0.0154,,0.0559,0.0573,,0.064,0.0443,,,0.0551,,
MGESLFKGPRDYNPISSSICHLTNESDGHTTSLYGIGFGPFIITNKHLFRRNNGTLVVQSLHGVFKVKDTTTLQQHLVDGRDMIIIRMPKDFPPFPQKLKFREPQREERICLVTTNFQTKSMSSMVSDTSCTFPSGDGIFWKHWIQTKDGQCGSPLVSTRDGFIVGIHSASNFTNTNNYFTSVPKNFMELLTNQEAQQWVSGWRLVADSVLWGGHKVFMVKPEEPFQPVKEATQL [N206V],0.0482,0.08,,0.0668,,,0.121,,,,0.0529,0.0591,0.0666,0.0103,,0.0657,0.0525,,
MGESLFKGPRDYNPISSSICHLTNESDGHTTSLYGIGFGPFIITNKHLFRRNNGTLVVQSLHGVFKVKDTTTLQQHLVDGRDMIIIRMPKDFPPFPQKLKFREPQREERICLVTTNFQTKSMSSMVSDTSCTFPSGDGIFWKHWIQTKDGQCGSPLVSTRDGFIVGIHSASNFTNTNNYFTSVPKNFMELLTNQEAQQWVSGWRLNADSVGWGGHKVFMVKPEEPFQPVKEATQL [L211G],0.0773,,,0.063,0.0609,0.0722,0.0964,0.0489,0.0768,0.0686,0.0547,0.0684,,,0.0865,0.0448,0.0705,,
